{"source": "PubChem BioAssay AID493208", "about": "(National Center for Advancing Translational Sciences (NCATS), 2011)", "note": "Hit rate of the full screen: of about 44,000 compounds, about 340 (0.77%) were called active. Not shown: some 5% with an inconclusive outcome. Calls come from the whole dose curve; as a rule, active = well fitted inhibition curve with a large enough effect; inconclusive = small, poorly fitted or top-dose-only effect; inactive = flat fitted curve, though single readings scatter. Some of the results follow. Potency is the fitted concentration of half-maximal effect.", "data": [{"experiment": "Acumen qHTS Assay for Inhibitors of the mTORC1 Signaling Pathway in MEF (Tsc2-/-, p53-/-) Cells: Sytravon; note: nearly all actives have a fitted effect of over 50% in size;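 for activity change, negative = inhibition: plate controls were DMSO for no effect and rapamycin for full effect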", "conditions": "phospho-rpS6 immunofluorescence/PI, 24 h; series mostly up to 38.3 µM; activity change, negative = inhibition: at the top concentration", "how_it_was_run": "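Plate MEFs (Tsc2-/-, p53-/-, empty vector) in DMEM/10% FBS; after 24 h add compound, incubate 24 h at 37 degree Celsius; fix in PFA/TX-100, block, stain phospho-rpS6 and 10 uM PI; scan at 488 nm; report % positive cells.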", "values": [{"smiles": "CCOC(=O)N1CCc2c(sc(NCc3sccc3C)c2C(=O)Nc2ccc(OC)cc2OC)C1", "activity change, negative = inhibition": "inactive: 1.43%"}, {"smiles": "Cc1cc(C)cc(NC(=O)C(Cc2ccccc2)NS(=O)(=O)c2ccc3c(c2)c(=O)n(C)c(=O)n3C)c1", "note": "(configuration not stated)", "activity change, negative = inhibition": "inactive: -13.2%"}, {"smiles": "COc1ccc(C)cc1NC(=O)CCS(=O)(=O)c1cc2c3c(c1)CCN3C(=O)CC2", "activity change, negative = inhibition": "inactive: 1.8%"}, {"smiles": "CCOc1ccc(Oc2nc(NCC(C)C)nc(N3CCOCC3)n2)nn1", "activity change, negative = inhibition": "inactive: -0.624%"}, {"smiles": "COc1cccc(CNC(=O)C(=O)NCC(c2ccco2)S(=O)(=O)c2cccs2)c1", "note": "(configuration not stated)", "activity change, negative = inhibition": "inactive: -4.68%"}, {"smiles": "CC(=O)N1CCc2cc(CNC(=O)Cc3ccc(F)cc3)ccc21", "activity change, negative = inhibition": "inactive: -2.22%"}, {"smiles": "CCOc1ccccc1CNC(=O)C1CCN(C(=O)N2CC(CC)Oc3ccc(C)cc32)CC1", "note": "(configuration not stated)", "activity change, negative = inhibition": "inactive: 8.22%"}, {"smiles": "O=C(/C=C/c1ccccc1)N1CCN(Cc2cc(=O)n3nc(-c4ccccc4F)sc3n2)CC1", "activity change, negative = inhibition": "inactive: -24.7%"}, {"smiles": "CC(C)(C)C(=O)Cn1c(=O)n(-c2ccc(Cl)cc2)c(=O)c2c3c(sc21)CCCC3", "activity change, negative = inhibition": "inactive: -2.05%"}, {"smiles": "COc1ccc(N2CC(NC(=O)/C=C\\c3ccccc3)CC2=O)cc1", "note": "(configuration not stated)", "activity change, negative = inhibition": "inactive: -0.299%"}, {"smiles": "O=C(Cn1c(SCCOc2ccccc2)nc2ccccc21)N1CCOCC1", "activity change, negative = inhibition": "inactive: -10.7%"}, {"smiles": "Cc1cc(OCCn2cc(C(=O)c3cccs3)c3ccccc32)ccc1Cl", "activity change, negative = inhibition": "inactive: -9.46%"}, {"smiles": "O=C(Nc1ccc2nc(SCC(=O)N3CCOCC3)sc2c1)c1cccc(Cl)c1", "activity change, negative = inhibition": "inactive: -12%"}, {"smiles": "COc1ccc(NC(=O)Cn2c(=O)n(CCC(=O)NCc3ccccc3OC)c(=O)c3ccccc32)cc1Cl", "activity change, negative = inhibition": "inactive: -4.77%"}, {"smiles": "Cc1ccc(Cn2ccn(Cc3ccccc3F)c(=O)c2=O)cc1", "activity change, negative = inhibition": "inactive: 0%"}, {"smiles": "COc1ccc(Cl)cc1N(C)C(=O)c1ccc2c(=O)n3c(nc2c1)CCCCC3", "activity change, negative = inhibition": "inactive: -7.46%"}, {"smiles": "Cc1c(Cl)cccc1NC(=O)COCc1cc(-c2ccc3c(c2)OCO3)on1", "activity change, negative = inhibition": "inactive: -13.1%"}, {"smiles": "COc1cccc(CNC(=O)CCc2c(C)nc3c(c(C)nn3-c3ccc(C)c(C)c3)c2C)c1", "activity change, negative = inhibition": "inactive: -2.46%"}, {"smiles": "Cc1nc2c(-c3ccccc3)c(C)nn2c(C)c1CCC(=O)N1CCN(c2ccc(F)cc2)CC1", "activity change, negative = inhibition": "inactive: -6.27%"}, {"smiles": "Cc1cccc(N2CCN(CCCNc3ncnc4onc(-c5ccc(Cl)cc5)c34)CC2C)c1", "note": "(configuration not stated)", "activity change, negative = inhibition": "inactive: 5.43%"}, {"smiles": "CSc1ccc(CCNC(=O)c2ccc(-c3nc(COc4ccccc4)c(C)o3)cc2)cc1", "activity change, negative = inhibition": "inactive: -8.3%"}, {"smiles": "COc1ccc(CCNC(=O)CCn2c(=O)c3ccccc3n(Cc3cc(C)ccc3C)c2=O)cc1OC", "activity change, negative = inhibition": "inactive: -9.25%"}, {"smiles": "Cc1cccc(NC(=O)c2ccc3snnc3c2)c1", "activity change, negative = inhibition": "inactive: -0.272%"}, {"smiles": "Cc1ccc2nc(-c3ccc(Cl)c(NC(=O)COc4cccc(C)c4C)c3)oc2c1", "activity change, negative = inhibition": "inactive: 3.86%"}, {"smiles": "Cc1cc2c(cc1NS(=O)(=O)c1ccc(F)cc1)n(C)c(=O)c(=O)n2C", "activity change, negative = inhibition": "inactive: -13.5%"}, {"smiles": "CCCc1cc(=O)[nH]c2nnc(SC(C)CC)n12", "note": "(configuration not stated)", "activity change, negative = inhibition": "inactive: -0.333%"}, {"smiles": "CCOC(=O)c1sc(NC(=O)/C=C/c2ccc(C(C)C)cc2)c(C(=O)OCC)c1C", "activity change, negative = inhibition": "inactive: 7.95%"}, {"smiles": "CCc1cccc(C)c1NS(=O)(=O)c1cc2[nH]c(=O)c(=O)[nH]c2cc1C", "activity change, negative = inhibition": "inactive: -1.2%"}, {"smiles": "Cc1ccc2nc(N3CCN(c4cccc(C(F)(F)F)c4)CC3)c3nnnn3c2c1", "activity change, negative = inhibition": "inactive: -2.32%"}, {"smiles": "CCN(CC)c1ccc(NC(=O)CCS(=O)(=O)c2cc3c(cc2Cl)NC(=O)CO3)c(C)c1", "activity change, negative = inhibition": "inactive: -0.505%"}, {"smiles": "CCc1nnc(SCC(=O)Nc2ccccc2Cl)nc1CC", "activity change, negative = inhibition": "inactive: 0.349%"}, {"smiles": "CC(C)COc1ccc(C(=O)NCC2(N3CCN(C)CC3)CCCCC2)cc1", "Potency": "active: 16.5 µM"}, {"smiles": "COCCNC(=O)Cn1nc(C)c2c(C)n(-c3ccc(C)cc3)nc2c1=O", "activity change, negative = inhibition": "inactive: 0%"}, {"smiles": "CCc1ccc2ncc3c(-c4ccccc4)nn(-c4ccccc4)c3c2c1", "activity change, negative = inhibition": "inactive: -3.27%"}, {"smiles": "CCc1ccc(NCc2cc3cc4c(cc3n(CC(=O)Nc3cccc(OC)c3)c2=O)OCO4)cc1", "activity change, negative = inhibition": "inactive: -12.5%"}, {"smiles": "Cc1cc(NS(=O)(=O)c2ccc(NC(=O)c3ccccc3C)cc2)nc(C)n1", "activity change, negative = inhibition": "inactive: -3.19%"}, {"smiles": "COc1cccc(NC(=O)CSc2nnc3scc(-c4ccc(Cl)cc4)n23)c1", "activity change, negative = inhibition": "inactive: 0.457%"}, {"smiles": "COc1ccc(N(C(=O)c2ccc(OC)c(OC)c2)S(=O)(=O)c2ccc(Cl)cc2)cc1", "activity change, negative = inhibition": "inactive: -5.33%"}, {"smiles": "Cc1ccc(C)c(NC(=O)CC2NCCNC2=O)c1", "note": "(configuration not stated)", "activity change, negative = inhibition": "inactive: 0.303%"}, {"smiles": "N#Cc1ccccc1Cn1c(=O)n(CCCC(=O)NCc2ccc3c(c2)OCO3)c(=O)c2sccc21", "activity change, negative = inhibition": "inactive: 2.83%"}, {"smiles": "Cc1ccc(NC(=O)C2CCCN(c3nnc(-n4c(C)ccc4C)s3)C2)c(C)c1", "note": "(configuration not stated)", "activity change, negative = inhibition": "inactive: -9.62%"}, {"smiles": "Cc1ccn2c(=O)cc(COc3ccc(NC(=O)COc4ccc(Cl)cc4)cc3)nc2c1", "activity change, negative = inhibition": "inactive: -0.145%"}, {"smiles": "CCCN(CCC)C(=O)Cn1c(=O)n(-c2cccc(OC)c2)c(=O)c2c3c(sc21)CCCC3", "activity change, negative = inhibition": "inactive: -12%"}, {"smiles": "CCCC(C(=O)NCc1cccc(Cl)c1)N1Cc2ccccc2C1=O", "note": "(configuration not stated)", "activity change, negative = inhibition": "inactive: 1.77%"}, {"smiles": "Cc1csc2nc(COC(=O)c3cccc(NC(=O)COc4ccc(Cl)cc4)c3)cc(=O)n12", "activity change, negative = inhibition": "inactive: 5.72%"}, {"smiles": "O=C(CCCCn1c(=O)c2ccccc2n(Cc2ccccc2Cl)c1=O)NCCc1ccccc1", "activity change, negative = inhibition": "inactive: 0.748%"}, {"smiles": "O=C(CCSCc1cnn(-c2ccccc2)c1-n1cccc1)NCc1ccc(Cl)cc1", "activity change, negative = inhibition": "inactive: -12.6%"}, {"smiles": "Cc1ccc(-n2c(=O)c3c(cnn3C)n(CC(=O)Nc3cc(C)ccc3C)c2=O)cc1", "activity change, negative = inhibition": "inactive: 0.358%"}, {"smiles": "Cc1ccc(NC(=O)Cn2cc(C(=O)c3cccs3)c3ccccc32)cc1C", "activity change, negative = inhibition": "inactive: -5.05%"}, {"smiles": "Cc1ccc(C(=O)c2cn(Cc3cccc(F)c3)c3nc(C)ccc3c2=O)cc1", "activity change, negative = inhibition": "inactive: -26%"}, {"smiles": "COc1ccc(C(=O)NCc2ccc3c(c2)CCN3C(=O)c2cccc(C)c2)cc1OC", "activity change, negative = inhibition": "inactive: -17.3%"}, {"smiles": "O=C(CCn1cccn1)Nc1cccc(C(F)(F)F)c1", "activity change, negative = inhibition": "inactive: -7.96%"}, {"smiles": "Cc1oc2ncnc(N3CCOCC3)c2c1C(=O)NCc1ccccc1", "activity change, negative = inhibition": "inactive: 4.13%"}, {"smiles": "Cc1nc2sccn2c(=O)c1S(=O)(=O)N1CCN(c2ccc(F)cc2)CC1", "activity change, negative = inhibition": "inactive: -3.5%"}, {"smiles": "CCCN(Cc1cccs1)C(=O)Nc1ccc(Br)c(C)c1", "activity change, negative = inhibition": "inactive: -4.66%"}, {"smiles": "CCCCOc1ccccc1NC(=O)Cn1c(-c2cncs2)nc2ccccc21", "activity change, negative = inhibition": "inactive: 4.88%"}, {"smiles": "COc1ccc(OC)c(-n2cnc3cc(C(=O)NC4CCCC4)ccc32)c1", "activity change, negative = inhibition": "inactive: 0.0472%"}, {"smiles": "O=C(Nc1nnc(S(=O)(=O)N2CCCC2)s1)c1ccc(F)cc1", "activity change, negative = inhibition": "inactive: -4.15%"}, {"smiles": "O=C(NC1CC(=O)N(c2ccccc2)C1)c1cc2ccccc2o1", "note": "(configuration not stated)", "activity change, negative = inhibition": "inactive: -2.44%"}, {"smiles": "Cc1oc(-c2ccccc2)nc1CNS(=O)(=O)c1ccc(Cl)cc1", "activity change, negative = inhibition": "inactive: 13.5%"}, {"smiles": "CN1CCN(Cc2c(O)ccc3cc(-c4ccccc4)c(=O)oc23)CC1", "activity change, negative = inhibition": "inactive: 1.8%"}, {"smiles": "CCOc1ccc(-c2cc(C(=O)NCc3ccc(OC)cc3)c3c(-c4ccc(F)cc4)[nH]nc3n2)cc1", "activity change, negative = inhibition": "inactive: 0.0903%"}]}]}
